Assay results published in publication PMC4336329 (PLoS ONE, 2015).
Among all 310,000 compounds or so, about 2,200 (0.71%) showed an effect of 50% or more. Effects have a minus sign here. Some of the results follow.

Target: human ether-à-go-go-related gene (hERG) potassium channel (human, UniProt Q12809)
Test: primary screen, population patch clamp on CHO cells stably expressing hERG

Sequence of human ether-à-go-go-related gene (hERG) potassium channel (Q12809 whole entry, looked up): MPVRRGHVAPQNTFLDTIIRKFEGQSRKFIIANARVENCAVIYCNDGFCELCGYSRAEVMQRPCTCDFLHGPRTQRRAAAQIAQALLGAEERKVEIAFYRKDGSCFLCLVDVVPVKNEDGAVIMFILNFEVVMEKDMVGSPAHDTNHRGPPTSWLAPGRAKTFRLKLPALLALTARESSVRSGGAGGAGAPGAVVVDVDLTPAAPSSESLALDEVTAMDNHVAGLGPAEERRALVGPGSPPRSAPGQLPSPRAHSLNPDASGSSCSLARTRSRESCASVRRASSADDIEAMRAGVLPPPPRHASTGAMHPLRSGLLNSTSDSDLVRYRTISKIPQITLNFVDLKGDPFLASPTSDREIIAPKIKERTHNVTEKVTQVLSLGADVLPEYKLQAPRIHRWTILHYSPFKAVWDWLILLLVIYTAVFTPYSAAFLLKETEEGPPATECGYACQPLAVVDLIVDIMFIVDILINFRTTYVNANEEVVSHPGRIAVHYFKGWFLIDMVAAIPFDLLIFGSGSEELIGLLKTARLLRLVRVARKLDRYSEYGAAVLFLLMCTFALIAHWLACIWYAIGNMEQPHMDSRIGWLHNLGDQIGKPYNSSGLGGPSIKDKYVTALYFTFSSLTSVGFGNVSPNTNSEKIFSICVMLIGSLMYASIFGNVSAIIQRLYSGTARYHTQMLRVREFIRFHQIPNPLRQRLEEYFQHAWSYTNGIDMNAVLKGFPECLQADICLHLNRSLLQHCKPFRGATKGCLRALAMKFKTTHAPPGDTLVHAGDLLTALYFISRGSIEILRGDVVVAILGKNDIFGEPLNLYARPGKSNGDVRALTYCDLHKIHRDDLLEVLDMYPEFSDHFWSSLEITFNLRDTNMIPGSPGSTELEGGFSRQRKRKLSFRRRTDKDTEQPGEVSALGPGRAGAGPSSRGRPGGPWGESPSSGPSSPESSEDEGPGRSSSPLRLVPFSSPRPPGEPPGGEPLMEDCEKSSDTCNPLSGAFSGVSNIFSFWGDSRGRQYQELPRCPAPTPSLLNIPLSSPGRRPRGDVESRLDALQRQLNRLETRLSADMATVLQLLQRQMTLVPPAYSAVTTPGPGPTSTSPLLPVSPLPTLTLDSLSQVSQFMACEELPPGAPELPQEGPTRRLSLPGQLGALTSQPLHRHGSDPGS

Compound	hERG current change (%, negative = inhibition) at 1uM [%]
CCOC(=O)CCCNC(=O)COC(=O)c1cc(Br)c(Br)s1	9.38
O=C(OCC#CCSc1nnc(-c2cccc3ccccc23)o1)c1ccco1	-6.89
CCCCC(=O)c1c(O)c2ccccc2oc1=O	16.3
CCC(C(=O)OC)n1cnc2c(nnn2-c2ccc(OC)cc2)c1=O (centres unmarked)	2.6
CCN(CC)c1ccc(NC(=O)C2=CCN(S(=O)(=O)c3ccc(F)cc3)CC2)c(C)c1	11.2
NC(=O)c1nsc(C(=O)N(c2ccccc2)C(C(=O)NC2CCCC2)c2ccc3ncccc3c2)c1N (centres unmarked)	15.3
Cc1cc(C(=O)Nc2c(F)c(F)c(F)c(F)c2F)n(-c2ccccc2)n1	-19.3
Cc1ccc(CO/N=C/c2c(O)cc(C)oc2=O)cc1	17
Cc1cc(C)c(S(C)(=O)=O)c(Oc2ccccc2C)n1	17.9
O=C1c2cccc3cccc(c23)C(=O)N1CCN1CCN(CC(O)COc2ccccc2)CC1 (centres unmarked)	-29.1
COc1ccc(OC)c(S(=O)(=O)NCc2ccccc2)c1	-7.58
Cc1ccc(OCC(=O)N2CCCc3ccccc32)cc1	9.17
COc1ccc(N2CCN(C(=O)C3CCN(S(=O)(=O)c4ccc5c(c4)oc(=O)n5C)CC3)CC2)cc1	6.2
COc1ccccc1N1CCN(C(=O)c2ccoc2C)CC1	2.23
CCNC(=S)N1CCN(CC)CC1.O=C(O)C(=O)O	5.42
CC(=O)Nc1ccc2nc3c(=O)n(C)c(=O)n(C)c3nc2c1	-6.43
CC(C)N(C)CCOC(=O)C1COc2ccccc2O1.Cl (centres unmarked)	15.6
CCN(CC)S(=O)(=O)c1ccc2[nH]c(=O)cc(C(=O)Nc3ccccc3N3CCOCC3)c2c1	3.38
Cc1nn(-c2ccccc2)c(Cl)c1C1C(C#N)=C(N)OC2=C1C(=O)CCC2 (centres unmarked)	5.31
O=C(NCCCN1CCOCC1)c1sc2ccccc2c1Cl	8.84
O=C(CN(C(=O)CNS(=O)(=O)c1ccccc1)c1ccc(F)cc1)NCc1ccco1	15.6
O=C(c1ccc2ccccc2n1)N(CCO)Cc1ccccc1	13.3

Compound	hERG current change (%, negative = inhibition) at 1uM [%]
O=C(N/N=C/c1cccc(F)c1)c1csc2c1CCCC2	-11.3
COc1ccc(Cl)cc1NC(=O)Nc1cccc([N+](=O)[O-])c1C	14.7
Cc1ccc(NC(=O)NCc2cccnc2)cc1Cl	12.2
Cc1cc(C)n(CNc2nc(C(F)(F)F)cs2)n1	5.41
Cc1c(Cl)cccc1NC(=S)NCC(C)C	9.6
COc1ccccc1N1CCN(Cc2cc(=O)n3ccsc3n2)CC1	13.5
Nc1cccc(Oc2ccc3c(c2)C(=O)N(CC2CCCO2)C3=O)c1 (centres unmarked)	12.6
Cn1c(CSc2ccccc2)c(C#N)c2ccccc21	1.49
CCCCN(C)C(=O)c1nc2ccccn2c1CN1CCN(C(=O)c2cccs2)CC1	-21
Cc1nn(-c2ccc(F)cc2)c(Cl)c1C(=O)N(C)CC(=O)Nc1cccc(F)c1	9.09
N#Cc1c(-c2ccccc2Cl)cc(-c2ccccc2)nc1Br	16.8
COc1ccc(C2(C)CC(C)(C)Nc3ccccc32)cc1 (centres unmarked)	14.3
Cc1[nH]c2ccccc2c1SCC(=O)NNC(=O)Nc1ccc(OC(F)(F)F)cc1	19.4
C/C(=N\NC(=O)c1ccc(N)cc1)C1CC1	14.5
Cc1nc(-c2cccc(NC(=O)c3cccc(S(=O)(=O)N4CCCC4)c3)c2)cs1	2.64
Cc1cc(=O)oc(C)c1C(=O)N[C@@H]1CCCCNC1=O	11.2
CC1(C)NC(=O)N(CCSc2ccc(Cl)cc2)C1=O	15
CCOc1cccc2c1OC(c1cc(OC)c(OC)c(OC)c1)N1N=C(c3ccc(C)o3)CC21 (centres unmarked)	12.6
O=C(COC(=O)c1cn(-c2ccccc2)nc1-c1cccnc1)NC1CC1	8.66
CCc1ccccc1N(CC(=O)NCCSCc1ccco1)S(C)(=O)=O	-5.51
CC(C)N1C(=O)CCC1C(=O)NC1CCCC1 (centres unmarked)	-0.75
CC(C)c1ccc(NC(=O)CSc2ncccc2C(=O)Oc2cccc([N+](=O)[O-])c2)cc1	7.96
